Results on 153 variants are retold here after a collection of fitness landscapes (doi:10.1016/j.celrep.2020.107928).

The full ranking holds about 81,000 sequences; the median of “one-hybrid fitness for binding parS DNA” is about -0.17, and the highest 2% start at about 0.51. The list shows a part of the results. A value given as a limit tells only on which side of the number the result lay.

B1: Caulobacter ParB omega fusion; a variant is named by its letters at X, in order, B8GW30 (parent)
chain: MESVVVGEPGMSEGRRGLGRGLSALLGEVDAAPAQAPGEQLGGSREAPIEILQRNPDQPRRTFREEDLEDLSNSIREKGVLQPILVRPSPDTAGEYQIVAGERAWRAAQRAGLKTVPIMVRELDDLAVLEIGIIENVQRADLNVLEEALSYKVLMEKFERTQENIAQTIGKSXSHVANXMRLLXLPDEVQSYLVSGELTAXHARAIAAAADPVALAKQIIEGGLSVRETEALARKAPNLSAGKSKGGRPPRVKDTDTQALESDLSSVLGLDVSIDHRGSTGTLTITYATLEQLDDLCNRLTRGI

In the experiment the parent is B1. Kind of experiment: one-hybrid fitness for binding parS DNA (scaled: cognate 1, non-cognate 0); higher = stronger binding. As to conditions: with parS DNA site. Put shortly: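 Caulobacter ParB libraries with four specificity codons randomised were screened by bacterial one-hybrid selection in the E. coli USO strain, using a HIS3 reporter whose site lies 19 bp from the promoter. Selection ran for 48 hours at 37°C on M9 lacking histidine, with 0.1 mM IPTG and 5 mM 3-AT. Plasmids were Illumina-sequenced before and after selection, three replicate libraries were pooled, and variants with under 10 reads were dropped. Fitness is the log change in each variant's read ratio to wild type, rescaled against the cognate and non-cognate sites.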
With RRWI, the “one-hybrid fitness for binding parS DNA” value is at most 0.2.

With NYSE, the “one-hybrid fitness for binding parS DNA” value is at most 0.2. With HPVM, the “one-hybrid fitness for binding parS DNA” value was at most 0.2. In the case of TCWL, the “one-hybrid fitness for binding parS DNA” value was at most 0.2. Consider AAEY, for which the “one-hybrid fitness for binding parS DNA” value was at most 0.2. LTKA: the “one-hybrid fitness for binding parS DNA” value was at most 0.2. In the case of VWTY, the “one-hybrid fitness for binding parS DNA” value was at most 0.2.

As for IMMS, the “one-hybrid fitness for binding parS DNA” value was at most 0.2. As to VSAK, the “one-hybrid fitness for binding parS DNA” value was at most 0.2. In the case of QKCM, the “one-hybrid fitness for binding parS DNA” value is at most 0.2.

CGRC: the “one-hybrid fitness for binding parS DNA” value was at most 0.2. As for CGHR, the “one-hybrid fitness for binding parS DNA” value was at most 0.2.

In the case of HVGC, the “one-hybrid fitness for binding parS DNA” value was at most 0.2.

With SRLG, the “one-hybrid fitness for binding parS DNA” value was at most 0.2.

For FMVR, the “one-hybrid fitness for binding parS DNA” value is at most 0.2. Consider GDSC, for which the “one-hybrid fitness for binding parS DNA” value was at most 0.2. MHPS: the “one-hybrid fitness for binding parS DNA” value is at most 0.2. The result for ASPL reads at most 0.2.

Take EKYF: the “one-hybrid fitness for binding parS DNA” value was at most 0.2. In the case of SCGD, the “one-hybrid fitness for binding parS DNA” value is at most 0.2. Next, YHQW: at most 0.2; FEAR: at most 0.2; VTTC: at most 0.2. For the variant IGAR, the “one-hybrid fitness for binding parS DNA” value was at most 0.2. The result for MTYW reads at most 0.2; that for ILMT, at most 0.2; that for KTTA, at most 0.2.

In the case of GHPT, the “one-hybrid fitness for binding parS DNA” value is at most 0.2. Regarding HNCG, the “one-hybrid fitness for binding parS DNA” value was at most 0.2. As for SLVL, the “one-hybrid fitness for binding parS DNA” value was at most 0.2. NYKL: the “one-hybrid fitness for binding parS DNA” value was at most 0.2. With RCCH, the “one-hybrid fitness for binding parS DNA” value was at most 0.2. Turning to QFKW, the “one-hybrid fitness for binding parS DNA” value is at most 0.2. As for LMRF, the “one-hybrid fitness for binding parS DNA” value is at most 0.2. Regarding KNAC, the “one-hybrid fitness for binding parS DNA” value is at most 0.2. The result for HRPK reads at most 0.2; that for QSCP, at most 0.2. Take AFQW: the “one-hybrid fitness for binding parS DNA” value was at most 0.2. For RFYA, the “one-hybrid fitness for binding parS DNA” value amounted to 0.578. The result for HHLL reads at most 0.2; that for TDDR, at most 0.2. As for QESY, the “one-hybrid fitness for binding parS DNA” value was at most 0.2.

On to LPAG, for which the “one-hybrid fitness for binding parS DNA” value was at most 0.2.

Turning to TVII, the “one-hybrid fitness for binding parS DNA” value is at most 0.2. For KCYL, the “one-hybrid fitness for binding parS DNA” value is at most 0.2. Next, PLCL: at most 0.2.

On to GQHC, for which the “one-hybrid fitness for binding parS DNA” value was at most 0.2. Turning to QYFC, the “one-hybrid fitness for binding parS DNA” value is at most 0.2.

On to YMDT, for which the “one-hybrid fitness for binding parS DNA” value is at most 0.2. As to HKCG, the “one-hybrid fitness for binding parS DNA” value is at most 0.2.

In the case of NSWG, the “one-hybrid fitness for binding parS DNA” value was at most 0.2. Regarding YHLS, the “one-hybrid fitness for binding parS DNA” value is at most 0.2. On to EYGR, for which the “one-hybrid fitness for binding parS DNA” value is at most 0.2. Take HTPY: the “one-hybrid fitness for binding parS DNA” value was at most 0.2. Next, CCFS: at most 0.2; TSQW: at most 0.2; ICPC: at most 0.2. Consider RTCM, for which the “one-hybrid fitness for binding parS DNA” value worked out at 0.298. Take TRFL: the “one-hybrid fitness for binding parS DNA” value was at most 0.2. On to QHVW, for which the “one-hybrid fitness for binding parS DNA” value was at most 0.2. HANC: the “one-hybrid fitness for binding parS DNA” value is at most 0.2. As for VMKS, the “one-hybrid fitness for binding parS DNA” value was at most 0.2. Next, QKET: at most 0.2. Turning to AATF, the “one-hybrid fitness for binding parS DNA” value was at most 0.2.

As to LLTS, the “one-hybrid fitness for binding parS DNA” value is at most 0.2.

Regarding RWMG, the “one-hybrid fitness for binding parS DNA” value came out at 0.671. As to HMLF, the “one-hybrid fitness for binding parS DNA” value was at most 0.2. With SCMG, the “one-hybrid fitness for binding parS DNA” value is at most 0.2. Regarding DGDS, the “one-hybrid fitness for binding parS DNA” value was found to be 0.263. Consider YPTW, for which the “one-hybrid fitness for binding parS DNA” value was at most 0.2. For the variant CTMR, the “one-hybrid fitness for binding parS DNA” value is at most 0.2.

As to NIVE, the “one-hybrid fitness for binding parS DNA” value is at most 0.2.

For the variant LIRT, the “one-hybrid fitness for binding parS DNA” value is at most 0.2. The result for QTKK reads at most 0.2; that for SMKG, at most 0.2. Turning to PKNC, the “one-hybrid fitness for binding parS DNA” value was at most 0.2. Next, RFPM: at most 0.2. Regarding HLKY, the “one-hybrid fitness for binding parS DNA” value was at most 0.2. The result for PGLD reads at most 0.2; that for FQRS, at most 0.2. For the variant QLIA, the “one-hybrid fitness for binding parS DNA” value is at most 0.2.

Turning to RQDI, the “one-hybrid fitness for binding parS DNA” value is at most 0.2. For NLAC, the “one-hybrid fitness for binding parS DNA” value is at most 0.2. The result for VPWS reads at most 0.2; that for GNAL, at most 0.2. For CMER, the “one-hybrid fitness for binding parS DNA” value was at most 0.2. On to QSIG, for which the “one-hybrid fitness for binding parS DNA” value is at most 0.2. Consider MDCR, for which the “one-hybrid fitness for binding parS DNA” value is at most 0.2. DMKL: the “one-hybrid fitness for binding parS DNA” value is at most 0.2. Take SFER: the “one-hybrid fitness for binding parS DNA” value was at most 0.2.

Consider PDNV, for which the “one-hybrid fitness for binding parS DNA” value was at most 0.2. In the case of DASP, the “one-hybrid fitness for binding parS DNA” value is at most 0.2. On to LKDA, for which the “one-hybrid fitness for binding parS DNA” value is at most 0.2.

As for QPKY, the “one-hybrid fitness for binding parS DNA” value is at most 0.2.

As to ANCS, the “one-hybrid fitness for binding parS DNA” value is at most 0.2. On to VTPN, for which the “one-hybrid fitness for binding parS DNA” value is at most 0.2. The result for RTEV reads at most 0.2; that for TLKV, at most 0.2. Next, YFAD: at most 0.2; EKHS: at most 0.2.

LRYP: the “one-hybrid fitness for binding parS DNA” value was at most 0.2. On to HSAV, for which the “one-hybrid fitness for binding parS DNA” value was at most 0.2. For RYFE, the “one-hybrid fitness for binding parS DNA” value was at most 0.2.

For QPQS, the “one-hybrid fitness for binding parS DNA” value is at most 0.2. Next, GKAC: at most 0.2; QTTD: at most 0.2. For MHCG, the “one-hybrid fitness for binding parS DNA” value was at most 0.2. As for RKCY, the “one-hybrid fitness for binding parS DNA” value was found to be 0.369. Regarding VQFS, the “one-hybrid fitness for binding parS DNA” value was at most 0.2. On to WISW, for which the “one-hybrid fitness for binding parS DNA” value is at most 0.2. The result for DSTA reads at most 0.2. Next, TDFS: at most 0.2; HSQP: at most 0.2. For the variant PLHM, the “one-hybrid fitness for binding parS DNA” value was at most 0.2. For SFLT, the “one-hybrid fitness for binding parS DNA” value is at most 0.2. For the variant SWQG, the “one-hybrid fitness for binding parS DNA” value was at most 0.2. On to NLMC, for which the “one-hybrid fitness for binding parS DNA” value is at most 0.2. Next, PRIV: at most 0.2; LPPH: at most 0.2; IEDG: at most 0.2. Next, EATS: at most 0.2. Regarding WSRP, the “one-hybrid fitness for binding parS DNA” value was at most 0.2.

For RYTM, the “one-hybrid fitness for binding parS DNA” value came to 0.295. Consider ICYS, for which the “one-hybrid fitness for binding parS DNA” value was at most 0.2. VAES: the “one-hybrid fitness for binding parS DNA” value was at most 0.2.

Regarding PLTW, the “one-hybrid fitness for binding parS DNA” value is at most 0.2. With QQMF, the “one-hybrid fitness for binding parS DNA” value is at most 0.2. Next, FETS: at most 0.2. As to EFKG, the “one-hybrid fitness for binding parS DNA” value was at most 0.2. Regarding IQPG, the “one-hybrid fitness for binding parS DNA” value was at most 0.2. Next, ELHG: at most 0.2; AIVL: at most 0.2. Regarding PLKI, the “one-hybrid fitness for binding parS DNA” value is at most 0.2.

On to DSRA, for which the “one-hybrid fitness for binding parS DNA” value is at most 0.2.

Consider TQPT, for which the “one-hybrid fitness for binding parS DNA” value is at most 0.2. Consider RDQC, for which the “one-hybrid fitness for binding parS DNA” value is at most 0.2. Consider NEWG, for which the “one-hybrid fitness for binding parS DNA” value is at most 0.2. Next, EMQT: at most 0.2; TVKY: at most 0.2; MHES: at most 0.2. Take DACG: the “one-hybrid fitness for binding parS DNA” value was at most 0.2. Turning to YIVW, the “one-hybrid fitness for binding parS DNA” value was at most 0.2. As to SPRD, the “one-hybrid fitness for binding parS DNA” value was at most 0.2.

In the case of LRVG, the “one-hybrid fitness for binding parS DNA” value is at most 0.2.

On to TGQT, for which the “one-hybrid fitness for binding parS DNA” value is at most 0.2. On to NDIT, for which the “one-hybrid fitness for binding parS DNA” value is at most 0.2.

As to PQQE, the “one-hybrid fitness for binding parS DNA” value is at most 0.2. The result for CGPG reads at most 0.2; that for SKNC, at most 0.2. RNSW: the “one-hybrid fitness for binding parS DNA” value was at most 0.2.

As for PENW, the “one-hybrid fitness for binding parS DNA” value is at most 0.2.

With TETG, the “one-hybrid fitness for binding parS DNA” value is at most 0.2. In the case of RGCR, the “one-hybrid fitness for binding parS DNA” value is at most 0.2.
